According to paper PMC4336329 (PLoS ONE, 2015):
Out of some 310,000 compounds screened, about 14,000 (4.5%) showed an effect of 50% or more. Effects have a minus sign here. This is one part of the list.

Target: human ether-à-go-go-related gene (hERG) potassium channel (human, UniProt Q12809)
Test: primary screen, population patch clamp on CHO cells stably expressing hERG
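Also: peak tail current of the secondary pulse compared with the same well before compound.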

Sequence of human ether-à-go-go-related gene (hERG) potassium channel (Q12809 whole entry, looked up): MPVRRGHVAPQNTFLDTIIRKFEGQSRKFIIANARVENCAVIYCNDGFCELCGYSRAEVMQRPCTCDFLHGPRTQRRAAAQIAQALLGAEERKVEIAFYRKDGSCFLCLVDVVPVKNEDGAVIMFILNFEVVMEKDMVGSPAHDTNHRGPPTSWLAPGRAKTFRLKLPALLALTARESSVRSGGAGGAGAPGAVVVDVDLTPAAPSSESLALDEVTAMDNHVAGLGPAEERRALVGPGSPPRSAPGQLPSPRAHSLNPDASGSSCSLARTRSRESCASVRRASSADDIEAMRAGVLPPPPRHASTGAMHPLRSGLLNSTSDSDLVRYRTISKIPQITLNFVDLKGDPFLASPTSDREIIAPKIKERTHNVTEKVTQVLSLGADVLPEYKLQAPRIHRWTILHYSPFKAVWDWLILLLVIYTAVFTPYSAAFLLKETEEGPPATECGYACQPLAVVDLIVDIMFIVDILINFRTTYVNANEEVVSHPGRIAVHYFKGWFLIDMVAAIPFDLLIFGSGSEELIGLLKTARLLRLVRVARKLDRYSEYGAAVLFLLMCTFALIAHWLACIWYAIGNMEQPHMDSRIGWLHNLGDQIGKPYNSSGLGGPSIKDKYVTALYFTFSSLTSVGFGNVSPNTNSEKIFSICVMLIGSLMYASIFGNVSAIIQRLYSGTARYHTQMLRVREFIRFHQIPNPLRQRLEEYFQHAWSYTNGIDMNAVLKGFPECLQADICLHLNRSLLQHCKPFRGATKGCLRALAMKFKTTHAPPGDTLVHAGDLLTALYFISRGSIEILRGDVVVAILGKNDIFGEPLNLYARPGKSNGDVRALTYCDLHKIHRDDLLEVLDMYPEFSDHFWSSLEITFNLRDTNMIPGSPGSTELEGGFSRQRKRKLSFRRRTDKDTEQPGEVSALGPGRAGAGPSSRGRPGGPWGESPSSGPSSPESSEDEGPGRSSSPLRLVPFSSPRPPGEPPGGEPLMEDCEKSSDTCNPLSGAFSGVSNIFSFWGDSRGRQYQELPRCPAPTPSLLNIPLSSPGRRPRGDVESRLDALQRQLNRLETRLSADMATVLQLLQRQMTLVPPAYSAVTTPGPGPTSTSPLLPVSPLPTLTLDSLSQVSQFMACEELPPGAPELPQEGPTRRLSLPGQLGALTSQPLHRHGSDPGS

Structure (SMILES) | hERG current change (%, negative = inhibition) at 10uM [%]
O=P1(NCc2ccco2)COc2ccccc2OC1 | 0.63
O=C1C(Cl)=C(N2CCN(Cc3ccccc3)CC2)C(=O)N1c1ccccc1 | 5.17
COCCNC(=S)N/N=C(\C)c1ccc(OC)cc1 | 1.26
CCCCOc1ccc(/C=C/C2=CC(C)(C)NC(=S)N2)cc1OCC | 7.58
CCCc1cc(=O)[nH]c(SCc2nc3ccccc3o2)n1 | 4.41
Cc1ccc(C(=O)NC(=S)Nc2ccc3c(c2)OCCO3)c(C)c1 | 4.11
COc1cccc(C2CC(=O)N3CN(c4cccc(Cl)c4C)CSC3=C2C#N)c1OC (stereo not shown) | 8.86
COCc1cc(=O)[nH]c(-c2ccc(C(F)(F)F)cc2)n1 | 11.3
Cc1ccccc1CN1CCN(CC(=O)NCc2ccccc2)CC1 | -22.8
Cc1ccc(C(=O)Nc2cc(C)nn2CCC#N)cc1 | -28.6
Cc1ccccc1NC(=O)CSc1nnc(C)c2ccccc12 | -11.1
O=C(NCc1ccncc1)C1=NN(c2ccccc2)C(=O)CC1 | 6.06
Cc1ccc(-c2csc(NC(=O)CSc3ncn(-c4ccccc4)n3)n2)cc1 | 3.86
CCn1cc([N+](=O)[O-])c(C(=O)NCc2ccc(Cl)cc2)n1 | -6.18
CCOc1ccc(NC(=O)c2cccc(-n3cccc3)c2)cc1S(=O)(=O)N1CCOCC1 | -30.4
COCCNC(=S)Nc1ccccc1[N+](=O)[O-] | 43.5
O=C(NCc1ccccc1)C(c1ccccc1F)N(C(=O)c1csnn1)C1CCCC1 (stereo not shown) | 7.52
O=C1Nc2ccc(Br)cc2C(c2ccccc2Cl)=NC1O (stereo not shown) | -48.6
CC(=O)NC(Cc1cccc(F)c1)C(=O)NC1CCN(C(=O)c2cccc(C)c2)CC1 (stereo not shown) | 12
CCc1sc(N(C(=O)Cc2ccccc2)c2ccc(F)cc2)nc1-c1ccccc1 | 18.8
COc1ccc(CN(C)CC(=O)c2c(N)n(Cc3ccccc3)c(=O)n(C)c2=O)c(OC)c1 | -66.1
Cc1ccc(CSc2nncn2-c2ccccn2)cc1 | 3.55
COc1cc(CC(=O)N/N=C/c2ccccc2)c([N+](=O)[O-])cc1OC | 0.219

Structure (SMILES) | hERG current change (%, negative = inhibition) at 10uM [%]
Cc1cc(C(=O)Nc2ccccc2Cl)n(-c2ccccc2)n1 | 12.2
CCN1CCCC1CNC(=O)CN1C(=O)COc2ccc(C)cc21 (stereo not shown) | -12.4
COCC(=O)Nc1cc(Cl)c(OC)cc1OC | 1.45
CCCCSC1=C(C#N)C(c2ccccc2C)C(C(=O)OCC)C(=O)N1 (stereo not shown) | -3.34
COc1ccc(NC(=O)CSCC(=O)N(C)Cc2cccc(OC)c2OC)cc1 | 2.8
Cc1ccc(C(=O)C2CCOC(C)(C)C2)cc1 (stereo not shown) | -0.917
CS(=O)(=O)N1N=C(c2ccc(Cl)cc2)CC1c1cccs1 (stereo not shown) | -17.7
Cc1nnc(N2C(=O)C(O)=C(C(=O)c3ccco3)C2c2ccc(F)cc2)s1 (stereo not shown) | 13.4
CCOc1cc(CNc2ccc3c(c2)OCCO3)cc(Br)c1OC | 4.78
O=C(NCc1nnc2c(C(F)(F)F)cc(Cl)cn12)c1ccc(Br)o1 | 0.447
Cc1cc(C)cc(NC(=S)NCc2ccc3[nH]c4c(c3c2)CCCC4)c1 | 16
COc1ccc(CCNC(=O)C2CC3Cn4c(nc5cc(C)c(C)cc54)C3N2C)cc1 (stereo not shown) | -31.4
O=C(NCC(=O)N1CCN(S(=O)(=O)/C=C/c2ccccc2)CC1)c1ccccc1F | 10.7
CN1CCc2nc(SCC(=O)Nc3ccc(Cl)cc3)c(C#N)cc2C1 | -38.4
CCSc1oc(-c2ccco2)nc1S(=O)(=O)c1ccccc1 | -12.8
OC(CNC1CCCCC1)C(F)(F)F (stereo not shown) | -2.73
CCC(C)c1ccccc1OCCCNC1CCCC1.O=C(O)C(=O)O (stereo not shown) | -30.1
COc1ccc(OCCCC(=O)OCC(=O)c2ccc3c(c2)NC(=O)CO3)cc1 | 15.7
COc1ccccc1N1CCN(C(=O)C(C)N(c2ccc(C)cc2)S(C)(=O)=O)CC1 (stereo not shown) | -8.26
CC(C)=CCN1CCN(Cc2cccnc2)CC1CCO (stereo not shown) | -1.24
CC(=O)c1ccc(S(=O)(=O)N2CCc3ccccc3C2)cc1 | 12
O=S(=O)(NCc1ccc2c(c1)OCO2)c1ccc(F)c(F)c1 | -12.9
COCCNC(=O)C1CC2Cn3c(nc4cc(C)c(C)cc43)C2N1C (stereo not shown) | 8.23
